In PubChem BioAssay AID485344 (National Center for Advancing Translational Sciences (NCATS), 2010):
The whole screen tested about 340,000 compounds, of which about 6,900 (2%) were called active. No stated cut-off is given here; in the data, active means inhibition above about 30%; inactive means below that, where a call was filed. The entries are a selection whose mix differs from that of the whole data set. The source gives no active or inactive call for entries shown without one.

Biological target: D(2) dopamine receptor (Homo sapiens) (UniProt P14416)
Assay: HTS Assay for Allosteric Antagonists of the Human D2 Dopamine Receptor: Primary Screen for Antagonists; further: 0% is about no effect
Settings: HEK293 TREx D2 cells, calcium flux, dopamine EC80; at 10 µM; stronger effect = higher value
Description: NIH Chemical Genomics Center [NCGC] NIH Molecular Libraries Probe Centers Network [MLPCN] MLPCN Grant: NS064831-01 Assay Submitter (PI): David Sibley Dopamine receptors (DARs) are involved in the etiology and/or therapy of a number of neuropsychiatric and endocrine disorders. For instance, all receptor-based antiparkinsonian drugs work via stimulating the D2 DAR subtype whereas all FDA-approved antipsychotic agents are antagonists of this receptor. […] There are three different types of allosteric modulators that we are seeking, two of which will stimulate or augment receptor signaling, allosteric agonists and potentiators, while the third, allosteric antagonists, will attenuate receptor signaling. The present primary screening assay measures compound antagonism after an EC80 addition of dopamine by tracking calcium flux in a […], inducible Hek293 Trex D2 cell line.
Freshly passaged cells are plated in 1536 well black, clear bottom plates at a density of 4000 cells/well in 3 ul of complete media containing 1x tetracycline inducer. After an overnight incubation at 30 C in 5% CO2, cells are loaded with 2 ul of the no wash Calcium Assay Kit (ABD Bioquest) and incubated at room temperature for 30 to 90 minutes. Agonist read: A 10 cycle (1 second/cycle) baseline measurement is taken and then the FDSS online 1536 pintool delivers 23 nl of compound library (as well as dopamine controls) to the plate. The plate is measured for kinetically at 1 cycle/sec for 180 seconds. Following the 180 second read, 1 ul of an EC80 (negative modulation assay) is delivered by an onboard pipette head. Measurements are taken kinetically for an additional 180 seconds.

UniProt P14416, sequence (P14416 whole entry, looked up): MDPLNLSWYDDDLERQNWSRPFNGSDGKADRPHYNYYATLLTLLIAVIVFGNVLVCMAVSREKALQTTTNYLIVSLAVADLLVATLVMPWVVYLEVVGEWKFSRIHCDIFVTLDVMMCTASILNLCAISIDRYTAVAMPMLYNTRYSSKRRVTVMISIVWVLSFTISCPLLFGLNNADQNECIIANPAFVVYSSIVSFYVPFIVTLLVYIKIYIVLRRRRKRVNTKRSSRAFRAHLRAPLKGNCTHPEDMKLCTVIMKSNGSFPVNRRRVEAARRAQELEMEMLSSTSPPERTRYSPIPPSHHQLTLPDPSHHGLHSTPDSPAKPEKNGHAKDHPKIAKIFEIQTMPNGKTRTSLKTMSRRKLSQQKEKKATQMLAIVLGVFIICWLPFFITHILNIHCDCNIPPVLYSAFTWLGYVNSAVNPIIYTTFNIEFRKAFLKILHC

Compared with `COc1ccccc1-c1noc(CCC(=O)Nc2ccc(C)cc2C)n1`, `COc1ccc(Cl)cc1NC(=O)Cn1cc(C(=O)c2ccc(C)cc2)c(=O)c2ccc(C)nc21` is higher in inhibition: -3.34% for the first, 4.24% for the second.

Compared with `Cc1ccc(NC(=O)C2CCCN(S(=O)(=O)c3cn(C(C)C)cn3)C2)c(C)c1` (centres undefined), `Cc1ccc(N(C)C(=O)C2CCN(S(=O)(=O)c3c(C)noc3/C=C/c3c(C)cc(C)cc3C)CC2)cc1` is lower in inhibition: 13.3% for the first, -27.4% for the second.

First: CCCOc1ccc(CNC(=O)c2ccc(-n3c(C)cc4c3CCC(C)C4)cc2)cc1 (centres undefined)
Second: CCOc1ccc(NC(=O)CC2C(=O)N(c3ccc(C)cc3)C(=O)N2CCC2=CCCCC2)cc1 (centres undefined)
The inhibition of the first is higher: 8.75% for the first, 8.36% for the second.

First: Cc1cc2oc(C(=O)Nc3ccc(S(=O)(=O)Nc4ncccn4)cc3)cc(=O)c2cc1C
Second: COC(=O)CN1C(=O)CSc2ccc(S(=O)(=O)Nc3cccc(C)c3C)cc21
The inhibition of the first is lower: -1.04% for the first, 2.14% for the second.

Going from `Cc1ccc(NC(=O)Cn2ccn(-c3ccccc3)c(=O)c2=O)cc1` to `CCc1ccc(NC(=O)CSc2nc3ccccc3c(=O)n2CCNC(C)=O)cc1`, the inhibition falls from 0.478% to -4.53%.

Compared with `CCN(C(=O)CSc1nc2ccccc2[nH]1)c1ccccc1`, `COc1cccc(OCCSc2nc(C)c(Cc3ccccc3)c(=O)[nH]2)c1` is lower in inhibition: 5.5% for the first, -6.71% for the second.

Going from `Cc1ccc(Cn2cc(S(=O)(=O)c3cccc(Cl)c3)c(=O)c3cc(F)c(N4CCOCC4)cc32)cc1` to `CC(C)c1ccc(NC(=O)c2ccc(F)c(S(=O)(=O)N3CCc4ccccc4C3)c2)cc1`, the inhibition rises from 3.24% to 10.6%.

Compared with `CCOc1ccc(C2NC(=O)c3c(COC)cc(C)nc3N2Cc2ccccc2)cc1OC` (centres undefined), `COc1ccc(NC(=O)CCCN2C(=O)CCn3nc(-c4cn(C)c5ccccc45)cc32)cc1OC` is lower in inhibition: -5.69% for the first, -15.5% for the second.

First: COc1ccccc1C(=O)Nc1cc2c(cc1N1CCCC1)n(C)c(=O)c(=O)n2C
Second: COc1ccccc1NC(=O)CCN1CCCCC1
The inhibition of the first is lower: -1.11% for the first, 1.36% for the second.

First: COc1cccc(NC(=O)C2=C(C)C(=O)OC23CCN(C(C)=O)CC3)c1
Second: COc1ccc2oc(=O)c(C(=O)Nc3ccc(C(=O)O)cc3)cc2c1
The inhibition of the first is lower: -22.4% for the first, -2.64% for the second.

Going from `COc1cc2c(cc1OC)C(COc1ccc3c(C)cc(=O)oc3c1)N(C(=O)c1cc(Cl)ccc1OC)CC2` (centres undefined) to `O=C(COc1ccc(Cl)cc1)Nc1ccc(C(=O)OCc2cc(=O)n3ccsc3n2)cc1`, the inhibition falls from -9.12% to -14.1%.

First: CCC(=O)N1c2ccc(S(=O)(=O)NCc3ccc(F)cc3)cc2CC1C (centres undefined)
Second: Cc1ccc(CN2CCSc3ccc(C(=O)NCC(C)c4ccccc4)cc32)cc1 (centres undefined)
The inhibition of the first is lower: -2.34% for the first, -1.51% for the second.

Compared with `CCN(CC)C(=O)Cn1nnc2sc(-c3ccccc3)cc2c1=O`, `CCOC(=O)c1cccc(Nc2cc(-c3ccccc3)ncn2)c1` is higher in inhibition: -18.1% for the first, -13.2% for the second.

First: Cc1cccc(N2CCN(S(=O)(=O)c3ccc4[nH]c5c(c4c3)CCCCC5)CC2)c1C
Second: Cc1ccc(NC(=O)C(C)n2nnc3sc4c(c3c2=O)CCCC4)cc1Cl (centres undefined)
The inhibition of the first is higher: 3.4% for the first, -23.1% for the second.

Going from `CCOC(=O)c1cccc(NC(=O)CC2C(=O)N(c3ccc(OC)cc3)C(=O)N2C2CCCC2)c1` (centres undefined) to `CCOc1ccc(C(=O)Nc2cccc(C(=O)OCc3cc(=O)n4nc(C5CC5)sc4n3)c2)cc1`, the inhibition falls from 13.1% to -20.4%.

First: Cc1cccc(C(=O)NCC(=O)OCc2cc(=O)n3nc(C4CCCCC4)sc3n2)c1
Second: CCOC(=O)c1ccccc1NC(=O)CSc1nc(=O)[nH]c2c1CCC2
The inhibition of the first is lower: -2.75% for the first, 0.268% for the second.

First: CCOC(=O)c1c(C)[nH]c(CCC(=O)NCc2ccccc2Cl)c1C
Second: C=Cc1ccc(Cn2c(C)c(CNCCc3ccccc3C)c(C(=O)O)c2C)cc1
The inhibition of the first is lower: -22% for the first, -3.17% for the second.

Going from `Cc1c(Cl)cccc1NC(=O)c1ccc2snnc2c1` to `Cc1ccc(NC(=O)CCSc2nc(-c3ccco3)cc(C(F)(F)F)n2)cc1F`, the inhibition rises from 2.02% to 21.2%.

First: CCOc1ccc(OCC)c(NC(=O)C2CCN(c3nnc(-n4cccc4)s3)CC2)c1
Second: COc1ccc(OCC(=O)Nc2nnc3n2CCS3)cc1
The inhibition of the first is lower: 6.72% for the first, 12% for the second.

Compared with `Cc1nc(-c2ccccc2)sc1CCNC(=O)C(=O)Nc1ccc2c(c1)OCO2`, `COc1ccc(CCNC(=O)c2c(O)nc3ccccn3c2=O)cc1` is higher in inhibition: -16.2% for the first, 9.13% for the second.

Going from `CC(=O)c1ccc(NC(=O)CCCSc2nc(-c3ccco3)cc(C(F)(F)F)n2)cc1` to `FC(F)(F)Oc1ccc2c(c1)NC(c1ccncc1)=NC(c1cccs1)=N2`, the inhibition rises from -14.5% to 16.3%.

Going from `Cc1ccn2c(=O)c(C(=O)NCCCN3CCCCC3C)c(O)nc2c1` (centres undefined) to `Nc1nonc1-c1nc2ccccc2n1Cc1cccc(Cl)c1`, the inhibition falls from -3.34% to -3.93%.

Work on `Cc1ccccc1CN1C(=O)C2(c3ccccc31)N(c1ccccc1)C(=O)CS2(=O)=O` (centres undefined) yielded an inhibition of 4.39%.

In the case of `CCOc1ccc(CN2CCC(Cc3ccccc3)CC2)cc1`, the inhibition is reported as active: 30.4%.
With `CC1CCCC(C)N1C(=O)CN1C(=O)C(C)(C)Oc2ccc(C(=O)NC3CCCC3)cc21` (centres undefined) the inhibition was active: 33.3%.
In the case of `COc1cc(NC(=O)CCCC(=O)OCC(F)(F)C(F)F)nc(OC)n1`, the inhibition is reported as active: 52.2%.
`COc1ccc(CNC(=O)C2CCCN(S(=O)(=O)c3ccc(-n4cnnn4)cc3)C2)cc1` (centres undefined) was tested, and the inhibition was active: 36%.
